In PMC4336329 (PLoS ONE, 2015):
About 2,200 (0.71%) of roughly 310,000 compounds showed an effect of 50% or more. The effect is printed as a negative number. The list shows a part of the results.

The compounds below were run against human ether-à-go-go-related gene (hERG) potassium channel (human, UniProt Q12809) (assay: primary screen, population patch clamp on CHO cells stably expressing hERG).
human ether-à-go-go-related gene (hERG) potassium channel, sequence (Q12809 whole entry, looked up): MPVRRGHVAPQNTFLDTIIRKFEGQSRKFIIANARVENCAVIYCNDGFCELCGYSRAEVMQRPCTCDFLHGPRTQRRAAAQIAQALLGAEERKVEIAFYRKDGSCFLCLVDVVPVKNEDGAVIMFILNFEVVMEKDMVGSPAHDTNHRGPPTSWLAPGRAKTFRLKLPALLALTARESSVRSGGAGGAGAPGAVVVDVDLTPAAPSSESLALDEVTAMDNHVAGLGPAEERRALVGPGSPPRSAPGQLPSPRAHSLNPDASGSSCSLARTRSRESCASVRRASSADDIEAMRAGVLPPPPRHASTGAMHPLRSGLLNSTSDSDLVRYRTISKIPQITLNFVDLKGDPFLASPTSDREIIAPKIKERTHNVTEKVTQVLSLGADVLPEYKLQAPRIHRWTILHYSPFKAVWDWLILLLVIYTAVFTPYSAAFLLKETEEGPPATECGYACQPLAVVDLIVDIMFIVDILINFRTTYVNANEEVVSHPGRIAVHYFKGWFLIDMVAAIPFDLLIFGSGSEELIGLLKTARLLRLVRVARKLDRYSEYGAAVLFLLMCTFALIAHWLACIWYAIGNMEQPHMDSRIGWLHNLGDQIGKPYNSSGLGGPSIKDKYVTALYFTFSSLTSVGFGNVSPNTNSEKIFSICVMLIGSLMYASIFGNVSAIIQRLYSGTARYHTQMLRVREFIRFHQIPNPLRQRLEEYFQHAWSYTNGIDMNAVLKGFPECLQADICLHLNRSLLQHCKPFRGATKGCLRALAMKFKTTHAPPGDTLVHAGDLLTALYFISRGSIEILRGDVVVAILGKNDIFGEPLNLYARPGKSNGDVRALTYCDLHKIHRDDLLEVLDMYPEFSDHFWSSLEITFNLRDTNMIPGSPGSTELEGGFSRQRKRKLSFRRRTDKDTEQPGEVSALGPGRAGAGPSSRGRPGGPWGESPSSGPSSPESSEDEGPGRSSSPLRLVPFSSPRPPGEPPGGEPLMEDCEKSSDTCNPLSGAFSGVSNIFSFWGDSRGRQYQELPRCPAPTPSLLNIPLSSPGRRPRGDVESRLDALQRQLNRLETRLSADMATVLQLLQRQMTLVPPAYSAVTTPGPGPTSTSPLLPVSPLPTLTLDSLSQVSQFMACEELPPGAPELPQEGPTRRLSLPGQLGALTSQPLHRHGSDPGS

Row | SMILES | hERG current change (%, negative = inhibition) at 1uM
1 | COc1ccc(CNC(=O)c2noc3c2CCCCC3)cc1 | 0.386%
2 | COc1ccccc1OCCCCN1CCN(c2ccccc2OC)CC1.O=C(O)C(=O)O | -13.1%
3 | CCCc1cc(=O)[nH]c(SCC(=O)c2ccc3c(c2)OCCO3)n1 | 8.79%
4 | O=C(c1cccc2ccccc12)C1CCCN(C(=O)CCCn2cncn2)C1 (centres unmarked) | -0.755%
5 | CCCC1CCC(c2ccc(OCC)cc2)=CC1=O (centres unmarked) | 11%
6 | COc1ccc(C(=O)NC(C(=O)NCc2ccccn2)C(C)C)cc1 (centres unmarked) | 11.6%
7 | Br.O=C(O)Cc1sc(N/N=C\c2ccncc2)nc1-c1ccccc1 | 9.73%
8 | O=C(Cc1ccccc1Cl)NCCCn1ccnc1 | 11.5%
9 | COc1ccc(/C(C)=N/NC(=O)c2sccc2-n2cccc2)cc1 | 14%
10 | Nc1nc(SCCO)[nH]c(=O)c1NC(=O)c1ccc(Br)o1 | 18.2%
11 | COC(=O)c1ccc(Oc2cc(C)nc(Cl)n2)cc1 | 16.6%
12 | O=C1C(Cl)=C(N2CCN(c3ccccc3[N+](=O)[O-])CC2)C(=O)c2ccccc21 | -2.78%
13 | Cc1cccc2cc(CN(Cc3ccc(F)cc3)C(=O)N(C)C)c3nnnn3c12 | 4.51%
14 | O=P(Cc1ccccn1)(c1ccccc1)c1ccccc1 | 9.86%
15 | COc1cccc(OC)c1C(=O)Nc1ccc(S(=O)(=O)N2CCCCC2)cc1 | 18.3%
16 | O=C1NCCC12C(=O)Nc1ccccc12 (centres unmarked) | 18.6%
17 | CCCCC(=O)OCC(=O)c1[nH]c(C)c(C(C)=O)c1C | 10.7%
18 | COc1ccc(OC)c(CN2CCCC(C(=O)c3ccccc3SC)C2)c1 (centres unmarked) | -26.3%
19 | CN(C)/C=N/c1nccc(-c2cccs2)n1 | -0.754%
20 | CN(C)C=NC(=O)c1[nH]c2ccc(Cl)cc2c1-c1ccccc1 | 16.7%
21 | COc1ccc(C2(CNC(=O)C(c3ccccc3)c3ccccc3)CCOCC2)cc1OC | 12.8%
22 | N#CCOc1nc(N2CCCCC2)nc(N2CCCCC2)n1 | -1.07%
23 | Cc1cc(OCc2cc(C(=O)N3CCCCCC3)no2)cc(C)c1Cl | 15.7%
24 | COc1cc(NC(=S)NCCCN2CCOCC2)cc(OC)c1OC | 16%
25 | CCc1ccccc1N(CC(=O)NC(C)(C)C)C(=O)CCC(=O)Nc1ccccn1 | 19%
26 | CCOC(=O)c1nc2c(ccc3ccccc32)cc1C | 12.6%
